Screen size: about 48,000 compounds; about 450 (0.94%) were called active. Not shown: some 19% with an inconclusive outcome. The call rests on the fitted dose curve; in most records, active means well fitted inhibition curve with a large enough effect; inconclusive means small, poorly fitted or top-dose-only effect; inactive means no such curve, though single readings can be large or run the other way. This is one part of the list.
Test: Primary qHTS for Identification of Small Molecule Inhibitors of Huntingtin Promoter Activity; further: nearly all actives have a fitted effect of over 50% in size
Details: HEK293 HTT promoter firefly luciferase reporter (activity 0% = vehicle and -100% = no light), 24 h; series mostly up to 57.5 µM; activity change, negative = inhibition: at the top concentration
Outline: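 Luminescence was read after Dual-Glo reagent and a 10 min room-temperature incubation. Values were normalized to vehicle (0% activity) and zero RLU (-100% activity). Reporter HEK293 cells had been exposed to compounds (up to 57.5 uM final) for 24 h.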

Activity change, negative = inhibition, inactive:
CCN(c1ccccc1)c1cc(NC)[n+](C)c(C)n1 -1.72%
CN1CCN(CCCN2c3ccccc3Sc3ccc(Cl)cc32)CC1
CCOc1ccc(NC(=O)CSc2nnc(NC(=O)Nc3ccccc3)s2)cc1 -9.17%
CCOc1ccc(-c2nonc2NC(=O)COc2ccc(C)c(C)c2)cc1OCC -5.37%
O=C(c1ccc2c(c1)N(Cc1cccc(Cl)c1)C(=O)c1ccccc1S2(=O)=O)N1CCN(c2cccc(C(F)(F)F)c2)CC1 -20.4%
CCOc1ccc(-c2cnc(NCc3cccc(Cl)c3)n2C)cc1 -2.87%
COc1ccc(C(=O)CCC(=O)Nc2cccc(C(C)=O)c2)cc1 10.9%
COc1ccc(CCNC(=O)Cn2c(=O)c3cccn3c3ccc(F)cc32)cc1OC -4.92%
Cc1ccc(Cn2c(=O)n(Cc3ccc(Cl)cc3)c(=O)c3cccnc32)cc1 -6.94%
Cc1ccccc1-n1nc(CO)c(C(=O)NCCc2ccccc2)n1 -7.44%
COc1cccc(NC(=O)C(=O)NCC(c2cccnc2)N2CCN(c3ccccc3)CC2)c1 (stereo not drawn) -4.69%
CC1CCc2c(sc(NC(=O)c3ccccc3)c2C(=O)Nc2ccccc2)C1 (stereo not drawn) -5.35%
CCOC(=O)CSc1nc2ccc(NC(=O)COc3ccccc3)cc2s1 0.524%
Cc1cccc(CSc2cn(CC(=O)N3CCCCCC3)c3ccccc23)c1 5.76%
O=C(NCc1ccc(Cl)cc1)c1cnc2sc(N3CCCCCC3)nn2c1=O 5.53%
COc1ccc(Cl)cc1NC(=O)C1CCN(c2ncnc3c2nc2n3CCCCC2)CC1 -11.7%
CCN(CC)c1ccc(NC(=O)c2cnn3c(C(F)F)cc(-c4ccccc4)nc23)cc1 1.6%
O=C(CCC(=O)N1Cc2ccccc2Oc2ncccc21)NCc1ccccc1Cl -13.4%
COc1ccc(C(c2c(O)cc(C)n(Cc3ccco3)c2=O)N2CCN(c3ccccc3)CC2)cc1 (stereo not drawn) -11.3%
Cc1cccc(CC(=O)NC2CC(=O)N(c3cccc(F)c3)C2)c1 (stereo not drawn) 5.08%
COc1ccc(OC)c(NC(=O)C2CCN(S(=O)(=O)c3ccc(C)cc3)CC2)c1 -14.8%
COCCNC(=O)CSc1nc(-c2ccc(F)cc2)[nH]c1-c1ccc(Cl)cc1 -32.8%
CC(CNC(=O)Cn1ncc2c3ccccc3n(Cc3cccc(Cl)c3)c2c1=O)c1ccccc1 (stereo not drawn) -9.31%
Nc1nc(=S)c2[nH]cnc2[nH]1 -23.2%
O=C(COc1ccccc1)Nc1ccc(OCc2cc(=O)n3ccsc3n2)cc1 -1.91%
CN(C(=O)CSc1nc2ncccc2o1)c1ccc(F)cc1 -0.49%
CC(C)CCNC(=O)C(=O)Nc1c2c(nn1-c1ccccc1)CS(=O)(=O)C2 -4.21%
COc1ccccc1N1CCN(S(=O)(=O)c2ccc(-c3cc(C(F)(F)F)on3)s2)CC1 -17.1%
CCOC(=O)c1cc(OC(=O)c2cccc(C)c2)n(-c2ccccc2)n1 -14.9%
COc1cccc(CNc2ncnc3onc(-c4ccc(F)cc4)c23)c1 -18.9%
COCc1cc(C)nc2sc3c(c12)NC(c1ccc(NC(C)=O)cc1)N(c1ccc(C)cc1)C3=O (stereo not drawn) 12.4%
O=c1c2ccccc2n(Cc2cccc(Cl)c2)c(=O)n1CCc1ccccc1 -23.4%
CC(=O)NCCc1nc2ccccc2n1CCCCOc1ccc(Cl)cc1 -26.5%
COc1cccc2cc(-c3nc4sc(C(=O)Nc5ccc(F)cc5F)c(C)c4c(=O)[nH]3)c(=O)oc12 4.42%
C[C@]12CCC3=C4CCC(=O)C=C4CC[C@@H]3[C@H]1CC[C@@]2(O)CC#N -7.23%
O=C1c2ccccc2C(=O)c2c1ccc(O)c2O 13.6%
COCc1cc(C)nc2sc3c(=O)n(-c4cc(C)ccc4C)nnc3c12 -2.5%
CCOC(=O)c1ccccc1NC(=O)N1CCN2CCCCC2C1 (stereo not drawn) -2.8%
CC(=O)Nc1nonc1-c1nnc(SCC(=O)Nc2cc(C)ccc2C)n1-c1ccccc1 -27.5%
COc1ccc(CNc2nc3c(S(=O)(=O)c4ccccc4)nnn3c3ccc(Cl)cc23)cc1 10.8%
CCOc1ccc(Nc2oc(/C=C/c3ccc(F)cc3)nc2C#N)cc1 0.843%
Cc1ccc(NC(=O)C(=O)NCC(c2cccnc2)N2CCN(C)CC2)cc1C (stereo not drawn) -16.3%
Cc1ccc(OCC(=O)Nc2ccc(C(=O)OCc3cc(=O)n4nc(C5CC5)sc4n3)cc2)cc1 -13.5%
COc1ccc(NC(=O)c2oc3c(c2C)-c2nn(Cc4c(F)cccc4Cl)cc2CC3)c(OC)c1 -6.13%
Cc1cc(C)c2c(CC(=O)Nc3nnc(C(C)C)s3)coc2c1 3.34%
Fc1ccccc1CNCCCSc1nnnn1-c1ccccc1 -5.38%
CCOC(=O)c1ccccc1NC(=O)CSc1ccc(-c2sc(-c3ccccc3)nc2C)nn1 -6.29%
Cc1cc(C)n(-c2nc3ccccc3nc2Nc2cccc(C(F)(F)F)c2)n1 1.12%
COc1ccc(C2C(C(=O)Nc3ccccc3)=C(C)Nc3nc(-c4ccccc4)nn32)cc1OC (stereo not drawn) -15.7%
COc1ccc(OC)c(-c2nc(Nc3ccccc3C)sc2CC(=O)O)c1 -22.7%
O=C1CCSC2(C(=O)N(Cc3ccc(F)cc3)c3ccccc32)N1c1ccccc1 (stereo not drawn) -21%
COc1ccc(NC(=O)C(=O)NCCc2ccccc2)cc1OC -2.84%
CC(C)CCNC(=O)CN1C(=O)COc2ccc(S(=O)(=O)N3CCOCC3)cc21 -12.3%
COc1cccc(C(=O)Nc2ccccc2C(=O)OCc2cc(=O)n3nc(C)sc3n2)c1 -12.9%
CCOC(=O)c1cccc(NC(=O)c2cc3c(Cl)nc4ccc(C)cc4c3s2)c1 -17.3%
CCc1ccc(NS(=O)(=O)c2ccc3[nH]cc(C(=O)NC4CCCC4)c(=O)c3c2)cc1 -17%
Fc1ccc(-c2cc(-c3nc(-c4cccc(Cl)c4)no3)[nH]n2)cc1 5.14%
COc1ccc(-c2noc(C3CC(=O)N(c4ccc(C)c(F)c4)C3)n2)c(OC)c1 (stereo not drawn) -22.3%
COc1ccccc1CNC(=O)CSc1ncc2c(n1)-c1ccccc1N(Cc1ccc(C)cc1)S2(=O)=O -5.92%
CC1CCC(NC(=O)c2ccc3c(c2)N(Cc2cccc(F)c2)C(=O)c2ccccc2S3)CC1 (stereo not drawn) 28.7%
Cc1ccc(C)c(NC(=O)C(C)n2c(=O)cc(C(F)(F)F)c3c(C)nn(C)c32)c1 (stereo not drawn) 6.16%
CCc1ccc(CNC(=O)c2ccc3c(c2)nc2n3CCOC2)cc1 0.896%
Cc1ccc(-c2nc(NC(=O)CSc3ccc4ccccc4n3)ns2)cc1 6.97%
